Measurements from the supplement of paper PMC4967469.
pIC50: −log10 of the molar value. Lines with a small IC50 respond at low doses; a limit (>, <) means that the fit lies beyond the doses tested. AUC sums up the same curve from the lowest dose to the 256-fold higher top dose; the more sensitive the line, the further below 1. Where the top dose is marked as inferred, it is not printed in the source and was worked back from the curve model.

Compound: CCCCCCCCCCCC1=C(O)C(=O)C=C(O)C1=O [Embelin]
Test: Viability of human cancer cell lines after 72 h of drug (GDSC screen)
Details: top dose 32 µM; top dose inferred
Procedure: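 Human cancer cell lines in 384-well plates, medium with 10% serum, drug for 72 h over a 256-fold dose range (nine 2-fold or five 4-fold steps up to the top dose). Adherent lines were fixed and stained with the nucleic acid dye Syto60, suspension lines read with resazurin; signal relative to control wells, capped at 0 and 100%. One two-parameter sigmoid per drug and line, fitted in a mixed model over all curves with the slope shared within a line.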

Cell Line	AUC	pIC50
IST-MES1 (mesothelioma, adherent)	0.906	< 4.49
EFM-192A (breast, adherent)	0.671	5.20
MHH-PREB-1 (B-cell leukaemia, suspension)	0.744	5.04
SW13 (adrenal gland, adherent)	0.786	4.85
NCI-H2009 (lung adenocarcinoma, adherent)	0.684	5.17
U-2-OS (osteosarcoma, adherent)	0.972	< 4.49
SK-MES-1 (lung squamous cell carcinoma, adherent)	0.649	5.27
Calu-3 (lung adenocarcinoma, adherent)	0.702	5.06
LC-2-ad (lung adenocarcinoma, adherent)	0.702	5.12
NCI-H1623 (lung adenocarcinoma, adherent)	0.846	4.50
KARPAS-620 (haematopoietic neoplasm, suspension)	0.852	4.71
HT55 (large intestine, adherent)	0.884	< 4.49
MES-SA (uterus, adherent)	0.844	4.74
H2591 (mesothelioma, adherent)	0.819	4.59
Ca9-22 (head and neck, adherent)	0.776	4.92
OVCAR-3 (ovary, adherent)	0.764	4.89
IGR-1 (melanoma, adherent)	0.667	5.26
SK-MEL-28 (melanoma, adherent)	0.675	5.22
DMS-79 (small cell lung carcinoma, suspension)	0.978	< 4.49
TGW (neuroblastoma, adherent)	0.723	5.11
SW837 (large intestine, adherent)	0.725	4.96
HCC-33 (small cell lung carcinoma, adherent)	0.928	< 4.49
8305C (thyroid, adherent)	0.849	< 4.49
ES1 (Ewing sarcoma, adherent)	0.716	5.09
NCI-H358 (lung adenocarcinoma, adherent)	0.78	4.83
SK-MM-2 (myeloma, suspension)	0.938	< 4.49

Cell Line	AUC	pIC50
JHH-2 (liver, adherent)	0.936	< 4.49
BFTC-905 (bladder, adherent)	0.649	5.31
DBTRG-05MG (glioma, adherent)	0.781	4.80
MEG-01 (chronic myeloid leukaemia, suspension)	0.875	4.55
EFO-27 (ovary, adherent)	0.806	4.67
LP-1 (myeloma, suspension)	0.93	< 4.49
CS1 (bone, adherent)	0.819	4.68
DMS-114 (small cell lung carcinoma, adherent)	0.877	< 4.49
KU812 (chronic myeloid leukaemia, suspension)	0.944	< 4.49
RPMI-8402 (T-cell lymphoblastic leukaemia, suspension)	0.626	5.38
SCC-15 (head and neck, adherent)	0.691	5.08
LNCaP-Clone-FGC (prostate, adherent)	0.824	4.64
JHU-022 (head and neck, adherent)	0.877	< 4.49
NCI-SNU-16 (stomach, suspension)	0.991	< 4.49
CaR-1 (large intestine, adherent)	0.859	< 4.49
NOS-1 (osteosarcoma, adherent)	0.641	5.27
KE-37 (lymphoblastic leukaemia, suspension)	0.499	5.70
SK-N-FI (neuroblastoma, adherent)	0.972	< 4.49
HDLM-2 (Hodgkin lymphoma, suspension)	0.811	4.78
TE-1 (oesophagus, adherent)	0.833	4.54
M14 (melanoma, adherent)	0.792	4.81
OCI-LY-19 (B-cell lymphoma, suspension)	0.71	5.13
JM1 (B-cell lymphoma, suspension)	0.717	5.13
8-MG-BA (glioma, adherent)	0.632	5.35
NCI-H716 (large intestine, suspension)	0.95	< 4.49
LB647-SCLC (small cell lung carcinoma, semi-adherent)	0.813	4.70

Cell Line	AUC	pIC50
HCT-116 (large intestine, adherent)	0.829	4.73
ES4 (Ewing sarcoma, adherent)	0.623	5.34
RD (rhabdomyosarcoma, adherent)	0.809	4.73
P32-ISH (Burkitt lymphoma, suspension)	0.62	5.41
HCC202 (breast, adherent)	0.739	4.89
EW-7 (Ewing sarcoma, semi-adherent)	0.831	4.77
COLO-678 (large intestine, semi-adherent)	0.972	< 4.49
A704 (kidney, adherent)	0.741	5.02
COLO-668 (small cell lung carcinoma, adherent)	0.812	4.77
CL-11 (large intestine, adherent)	0.963	< 4.49
AsPC-1 (pancreas, adherent)	0.843	< 4.49
KS-1 (glioma, adherent)	0.806	4.67
NB10 (neuroblastoma, adherent)	0.904	< 4.49
ES5 (Ewing sarcoma, adherent)	0.774	4.84
no-11 (glioma, adherent)	0.743	4.92
H2595 (mesothelioma, adherent)	0.857	< 4.49
GAMG (glioma, adherent)	0.743	4.98
LS-180 (large intestine, adherent)	0.732	4.99
H2803 (mesothelioma, adherent)	0.823	4.64
DSH1 (bladder, adherent)	0.9	< 4.49
HCC-44 (lung adenocarcinoma, adherent)	0.605	5.41
WSU-DLCL2 (B-cell lymphoma, suspension)	0.99	< 4.49
NCI-H1568 (lung adenocarcinoma, adherent)	0.665	5.19
BE2-M17 (neuroblastoma, adherent)	0.951	< 4.49
ONS-76 (medulloblastoma, adherent)	0.71	5.08
TT2609-C02 (thyroid, adherent)	0.726	5.03

Cell Line	AUC	pIC50
RT-112 (bladder, adherent)	0.735	5.00
OMC-1 (cervix, adherent)	0.761	4.93
MMAC-SF (melanoma, adherent)	0.853	–
CAL-27 (head and neck, adherent)	0.796	4.82
EHEB (lymphoid neoplasm, suspension)	0.878	< 4.49
RCC10RGB (kidney, adherent)	0.895	< 4.49
SW962 (urogenital system, adherent)	0.702	5.07
MDA-MB-231 (breast, adherent)	0.827	4.68
SW620 (large intestine, adherent)	0.877	4.59
A375 (melanoma, adherent)	0.615	5.41
IHH-4 (thyroid, semi-adherent)	0.751	5.06
MDA-MB-330 (breast, adherent)	0.694	5.12
WIL2-NS (lymphoid neoplasm, suspension)	0.685	5.23
MCF7 (breast, adherent)	0.697	5.14
OVTOKO (ovary, adherent)	0.845	< 4.49
MHH-ES-1 (Ewing sarcoma, adherent)	0.825	4.73
HCC38 (breast, adherent)	0.811	4.73
ChaGo-K-1 (non-small cell lung carcinoma, adherent)	0.695	5.11
NCI-H2122 (lung adenocarcinoma, adherent)	0.605	5.42
A498 (kidney, adherent)	0.84	< 4.49
T-T (oesophagus, adherent)	0.702	5.13
OVISE (ovary, adherent)	0.917	< 4.49
NCI-H522 (lung adenocarcinoma, adherent)	0.76	4.88
